PubChem BioAssay AID330 (DTP/NCI, 2004)
Several values for one entry are separate records, joined by “and”; a condition that tells them apart may be missing. Equal values may be shown once. The source gives many values for each of these; only a part stands here. Inconclusive results and toxic doses are left out. How the source made its calls: active means survival T/C of 150% or more; inactive means T/C below 125% in these data.

System: P388 leukemia ip, CD2F1 mice, survival T/C
Test: NCI In Vivo Anticancer Drug Screen. Data for tumor model P388 Leukemia (intraperitoneal) in CD2F1 (CDF1) mice
Conditions: endpoint: median survival time, higher = longer survival
Procedure, shortened: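 Mice carrying the transplanted tumor received test compound or vehicle. Survival was recorded in each group, and the value is the treated-group measurement divided by that of the vehicle-treated control group.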

Measured: T/C

COc1cc(NS(C)(=O)=O)ccc1Nc1c2ccccc2nc2ccccc12
active: dose: 3.12 mg/kg/injection, schedule: Q01DX009 (ip), vehicle: Klucel (hydroxypropylcellulose) (HPC) 179 % of control | dose: 4.0 mg/kg/injection, schedule: Q04DX003 (ip), vehicle: other 169 % of control | dose: 6.25 mg/kg/injection, schedule: Q01DX001 (ip), vehicle: Klucel (hydroxypropylcellulose) (HPC) 160 % of control and 171 % of control | dose: 6.25 mg/kg/injection, schedule: Q01DX009 (ip), vehicle: Klucel (hydroxypropylcellulose) (HPC) 157 % of control | dose: 8.0 mg/kg/injection, schedule: Q04DX003 (ip), vehicle: other 216 % of control | dose: 12.5 mg/kg/injection, schedule: Q01DX001 (ip), vehicle: Klucel (hydroxypropylcellulose) (HPC) 182 % of control and 186 % of control | dose: 12.5 mg/kg/injection, schedule: Q01DX009 (ip), vehicle: Klucel (hydroxypropylcellulose) (HPC) 165 % of control | dose: 16.0 mg/kg/injection, schedule: Q04DX003 (ip), vehicle: other 207 % of control | dose: 25.0 mg/kg/injection, schedule: Q01DX001 (ip), vehicle: Klucel (hydroxypropylcellulose) (HPC) 153 % of control and 196 % of control
inactive: dose: 1.56 mg/kg/injection, schedule: Q01DX009 (ip), vehicle: Klucel (hydroxypropylcellulose) (HPC) 98 % of control | dose: 2.0 mg/kg/injection, schedule: Q04DX003 (oral), vehicle: other 103 % of control | dose: 4.0 mg/kg/injection, schedule: Q04DX003 (oral), vehicle: other 103 % of control | dose: 9.38 mg/kg/injection, schedule: Q04DX002 (oral), vehicle: dextrose 109 % of control | dose: 18.75 mg/kg/injection, schedule: Q04DX002 (oral), vehicle: dextrose 111 % of control and 115 % of control | dose: 25.0 mg/kg/injection, schedule: Q01DX009 (ip), vehicle: Klucel (hydroxypropylcellulose) (HPC) 92 % of control | dose: 32.0 mg/kg/injection, schedule: Q04DX003 (oral), vehicle: other 92 % of control | dose: 75.0 mg/kg/injection, schedule: Q04DX003 (oral), vehicle: other 94 % of control
